Results taken from the supplement of paper PMC12217912.
This is one part of the list. The full chains were built here from the parent and the listed change. Inactive controls read about 0.05.

B1: TEV protease; numbered along this chain (parent)
chain: MGESLFKGPRDYNPISSSICHLTNESDGHTTSLYGIGFGPFIITNKHLFRRNNGTLVVQSLHGVFKVKDTTTLQQHLVDGRDMIIIRMPKDFPPFPQKLKFREPQREERICLVTTNFQTKSMSSMVSDTSCTFPSGDGIFWKHWIQTKDGQCGSPLVSTRDGFIVGIHSASNFTNTNNYFTSVPKNFMELLTNQEAQQWVSGWRLNADSVLWGGHKVFMVKPEEPFQPVKEATQL

Variants of: B1
Assay: raw area under fraction-flipped curve 0-4 h after induction (AUC4h, not background-subtracted), DNA-recorder readout of cleavage of the substrate (dimensionless); higher = more cleavage of the substrate by the protease variant
Details: temperature: 34 °C; time window: 0-4 h after rhamnose induction
Procedure: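 In vivo DNA recorder in E. coli TOP10(DE3) ΔrhaA at 34 °C. Each TEVp single-site mutant (parent TEVp 0) is paired with a single-site variant of the 7-mer TEVs (canonical ENLYFQ|S). The substrate sits between flexible linkers in a Bxb1-sfGFP-TEVs-SsrA fusion, so cleavage stabilises Bxb1 and speeds flipping of a recombination array, read by NGS. The value is the raw area under the fraction-flipped curve over 0-4 h after rhamnose induction (AUC4h), with ≥20 reads per time point. It is not background-subtracted; inactive controls average about 0.047.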
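Note: Bxb1 expression induced with 0.2% (w/v) L-rhamnose at OD600 near 0.5, cultures sampled hourly, flipped fraction per protease–substrate barcode pair counted by paired-end Illumina sequencing.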

Row | Variant | area with substrate ENLYDQS | area with substrate ENLYEQS | area with substrate ENLYHQS | area with substrate ENLYMQS | area with substrate ENLYNQS | area with substrate ENLYPQS | area with substrate ENLYQQS | area with substrate ENLYWQS | area with substrate ENLYYQS | area with substrate ENLYIQS | area with substrate ENLYRQS | area with substrate ENLYTQS | area with substrate ENLYVQS | area with substrate ENLYCQS | area with substrate ENLYGQS | area with substrate ENLYLQS | area with substrate ENLYKQS | area with substrate ENLYSQS
1 | Y34R | 0.0566 | 0.058 | 0.069 | 0.0901 | 0.0629 | 0.0608 | 0.0687 | 0.0995 | 0.0593 | – | – | – | – | – | – | – | – | –
2 | Y34V | 0.0581 | – | 0.0707 | – | 0.0611 | 0.0662 | – | 0.0658 | 0.0567 | 0.1 | 0.0414 | 0.0812 | 0.0852 | – | – | – | – | –
3 | M219N | – | 0.0503 | – | – | 0.071 | 0.0883 | – | 0.088 | – | 0.0547 | 0.0609 | – | – | 0.0872 | – | – | – | –
4 | T115L | 0.07 | – | 0.0511 | 0.0998 | 0.0237 | 0.0927 | – | 0.0848 | – | 0.109 | 0.0488 | 0.0949 | – | – | 0.0694 | 0.0901 | – | –
5 | R106V | 0.0643 | 0.0803 | 0.066 | – | 0.0954 | 0.0835 | 0.0663 | 0.0724 | 0.0725 | 0.113 | 0.0337 | – | – | – | 0.0413 | 0.0827 | 0.0545 | 0.0925
6 | N53F | 0.0658 | 0.0404 | – | 0.063 | – | 0.0596 | 0.0705 | 0.0588 | 0.0582 | – | 0.0518 | – | 0.0796 | – | 0.065 | – | 0.068 | 0.0692
7 | T30E | 0.0626 | – | 0.0672 | 0.0981 | 0.0535 | 0.0676 | 0.0687 | 0.0845 | 0.0711 | 0.0724 | 0.0622 | 0.0666 | 0.131 | – | 0.0623 | – | 0.0591 | 0.054
8 | L5K | 0.0302 | 0.0817 | – | 0.108 | 0.0846 | 0.0662 | 0.049 | – | 0.0561 | 0.108 | 0.0671 | – | 0.123 | – | 0.071 | 0.0929 | 0.0589 | –
9 | L5A | 0.0105 | – | – | – | 0.0757 | 0.0772 | – | – | – | 0.136 | 0.0528 | 0.0805 | – | – | – | – | – | 0.0741
10 | S18H | 0.0618 | 0.0578 | 0.0755 | 0.0758 | 0.0761 | 0.0744 | 0.0696 | 0.0975 | 0.0559 | – | 0.0562 | – | 0.12 | – | 0.052 | – | 0.0431 | 0.0596
11 | F95I | 0.0537 | 0.08 | 0.0796 | – | – | 0.0496 | – | 0.0728 | 0.0322 | 0.0827 | – | – | 0.103 | – | 0.0613 | – | 0.052 | –
12 | K66N | 0.071 | – | – | – | – | – | – | 0.0785 | – | 0.118 | 0.0708 | – | – | – | 0.0702 | – | 0.0491 | –
13 | P225G | 0.051 | 0.0542 | 0.0618 | 0.0745 | 0.0657 | – | – | 0.0879 | – | 0.0887 | 0.0598 | 0.0718 | 0.117 | 0.0951 | 0.0565 | – | 0.0974 | 0.0603
14 | P225M | 0.0374 | 0.0546 | 0.0636 | 0.0986 | 0.075 | 0.0764 | 0.0671 | 0.0809 | 0.0539 | 0.106 | 0.0645 | 0.0615 | 0.118 | 0.0942 | 0.0678 | – | 0.0941 | 0.0671
15 | R51Y | 0.0611 | 0.0823 | 0.0697 | 0.102 | – | – | – | 0.107 | – | 0.108 | 0.0458 | – | – | – | 0.0258 | – | – | 0.121
